# Measurements from the supplement of paper PMC8728848.
# This is one part of the list.
# B1: Cohesin-hLangerin (Homo sapiens) (protein)
# chain: LDDLDAVRIKVDTVNAKPGDTVRIPVRFSGIPSKGIANCDFVYSYDPNVLEIIEIEPGDIIVDPNPDKSFDTAVYPDRKIIVFLFAEDSGTGAYAITKDGVFATIVAKVKEGAPNGLSVIKFVEVGGFANNDLVEQKTQFFDGGANVGDTTEPATPTTPVTTPTTTDDLDAASYPRFMGTISDVKTNVQLLKGRVDNISTLDSEIKKNSDGMEAAGVQIQMVNESLGYVRSQFLKLKTSVEKANAQIQILTRSWEEVSTLNAQIPELKSDLEKASALNTKIRALQGSLENMSKLLKRQNDILQVVSQGWKYFKGNFYYFSLIPKTWYSAEQFCVSRNSHLTSVTSESEQEFLYKTAGGLIYWIGLTKAGMEGDWSWVDDTPFNKVQSARFWIPGEPNNAGNNEHCGNIKAPSLQAWNDAPCDKTFLFICKRPYVPSEPHHHHHH
# Tests used:
# Test in all cases: glycan array binding signal (z-score within array); higher = stronger binding
# Settings in all cases: glycan notation: IUPAC condensed, linker removed
# [1] = target: Man(a1-2)Man(a1-3)[Man(a1-2)Man(a1-6)]Man(a1-6)[Man(a1-2)Man(a1-2)Man(a1-3)]Man
# How it was run: (§1)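 Glycan array data came from 3228 arrays in the Consortium for Functional Glycomics database, and only arrays with an available protein sequence were kept. Glycan names were put into IUPAC-condensed notation, and columns mapping to the same glycan were averaged. The binding signal is a within-array Z-score, averaged across arrays of one protein sequence run at different concentrations or buffers and across linkers. A negative Z-score can be read as non-binding.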
# [2] = target: Man(a1-2)Man(a1-3)[Man(a1-2)Man(a1-6)]Man(a1-6)[Man(a1-2)Man(a1-2)Man(a1-3)]Man(b1-4)GlcNAc(b1-4)GlcNAc
# How it was run: as §1
# [3] = target: Man(a1-2)Man(a1-3)[Man(a1-6)]Man(a1-6)[Man(a1-2)Man(a1-3)]Man(b1-4)GlcNAc(b1-4)GlcNAc
# How it was run: as §1
# [4] = target: Man(a1-2)Man(a1-6)[Man(a1-3)]Man(a1-6)[Man(a1-2)Man(a1-2)Man(a1-3)]Man
# How it was run: as §1
# [5] = target: Man(a1-2)Man(a1-6)[Man(a1-3)]Man(a1-6)[Man(a1-2)Man(a1-2)Man(a1-3)]Man(b1-4)GlcNAc(b1-4)GlcNAc
# How it was run: as §1
# Man(a1-3)[Man(a1-6)]Man = target: Man(a1-3)[Man(a1-6)]Man
# How it was run: as §1
# [6] = target: Man(a1-3)[Man(a1-6)]Man(a1-6)[Man(a1-2)Man(a1-3)]Man(b1-4)GlcNAc(b1-4)GlcNAc
# How it was run: as §1
# [7] = target: Man(a1-3)[Man(a1-6)]Man(a1-6)[Man(a1-3)]Man
# How it was run: as §1
# [8] = target: Man(a1-3)[Man(a1-6)]Man(a1-6)[Man(a1-3)]Man(b1-4)GlcNAc(b1-4)GlcNAc
# How it was run: as §1
# [9] = target: Man(a1-3)[Man(a1-6)]Man(b1-4)GlcNAc(b1-4)GlcNAc
# How it was run: as §1
# [10] = target: Man(a1-3)[Man(a1-6)]Man(b1-4)GlcNAc(b1-4)[Fuc(a1-6)]GlcNAc
# How it was run: as §1
# Man(a1-6)Man = target: Man(a1-6)Man
# How it was run: as §1
# Man(b1-4)GlcNAc = target: Man(b1-4)GlcNAc
# How it was run: as §1
# MurNAc(b1-4)GlcNAc = target: MurNAc(b1-4)GlcNAc
# How it was run: as §1
# Neu5Ac(a2-3)Gal = target: Neu5Ac(a2-3)Gal
# How it was run: as §1
# [11] = target: Neu5Ac(a2-3)Gal(b1-3)GalNAc
# How it was run: as §1
# [12] = target: Neu5Ac(a2-3)Gal(b1-3)GalNAc(b1-3)Gal(a1-4)Gal(b1-4)Glc
# How it was run: as §1
# [13] = target: Neu5Ac(a2-3)Gal(b1-3)GalNAc(b1-4)[Neu5Ac(a2-3)]Gal(b1-4)Glc
# How it was run: as §1
# [14] = target: Neu5Ac(a2-3)Gal(b1-3)GalNAc(b1-4)[Neu5Ac(a2-8)Neu5Ac(a2-3)]Gal(b1-4)Glc
# How it was run: as §1
# [15] = target: Neu5Ac(a2-3)Gal(b1-3)GalNAc6S
# How it was run: as §1
# [16] = target: Neu5Ac(a2-3)Gal(b1-3)GlcNAc
# How it was run: as §1
# [17] = target: Neu5Ac(a2-3)Gal(b1-3)GlcNAc(b1-2)Man
# How it was run: as §1
# [18] = target: Neu5Ac(a2-3)Gal(b1-3)GlcNAc(b1-2)Man(a1-3)[GlcNAc(b1-4)][Neu5Ac(a2-3)Gal(b1-3)GlcNAc(b1-2)Man(a1-6)]Man(b1-4)GlcNAc(b1-4)GlcNAc
# How it was run: as §1
# [19] = target: Neu5Ac(a2-3)Gal(b1-3)GlcNAc(b1-2)Man(a1-3)[Neu5Ac(a2-3)Gal(b1-3)GlcNAc(b1-2)Man(a1-6)]Man(b1-4)GlcNAc(b1-4)GlcNAc
# How it was run: as §1
# [20] = target: Neu5Ac(a2-3)Gal(b1-3)GlcNAc(b1-3)Gal(b1-3)GlcNAc
# How it was run: as §1
# [21] = target: Neu5Ac(a2-3)Gal(b1-3)GlcNAc(b1-3)Gal(b1-4)GlcNAc
# How it was run: as §1
# [22] = target: Neu5Ac(a2-3)Gal(b1-3)GlcNAc(b1-3)GalNAc
# How it was run: as §1
# [23] = target: Neu5Ac(a2-3)Gal(b1-3)GlcNAc(b1-4)Gal(b1-4)Glc
# How it was run: as §1
# [24] = target: Neu5Ac(a2-3)Gal(b1-3)GlcNAc(b1-6)GalNAc
# How it was run: as §1
# [25] = target: Neu5Ac(a2-3)Gal(b1-3)GlcNAc6S
# How it was run: as §1
# [26] = target: Neu5Ac(a2-3)Gal(b1-3)[Fuc(a1-4)]GlcNAc
# How it was run: as §1
# [27] = target: Neu5Ac(a2-3)Gal(b1-3)[Fuc(a1-4)]GlcNAc(b1-3)Gal(b1-3)[Fuc(a1-4)]GlcNAc
# How it was run: as §1
# [28] = target: Neu5Ac(a2-3)Gal(b1-3)[Fuc(a1-4)]GlcNAc(b1-3)Gal(b1-4)[Fuc(a1-3)]GlcNAc
# How it was run: as §1
# [29] = target: Neu5Ac(a2-3)Gal(b1-3)[GlcNAc(b1-6)]GalNAc
# How it was run: as §1
# [30] = target: Neu5Ac(a2-3)Gal(b1-3)[Neu5Ac(a2-6)]GalNAc
# How it was run: as §1
# [31] = target: Neu5Ac(a2-3)Gal(b1-3)[Neu5Ac(a2-6)]GlcNAc(b1-3)[Fuc(a1-3)[Gal(b1-4)]GlcNAc(b1-6)]Gal(b1-4)Glc
# How it was run: as §1
# [32] = target: Neu5Ac(a2-3)Gal(b1-3)]Neu5Ac(a2-3)Gal(b1-4)]GlcNAc
# How it was run: as §1
binder,measurement,setting,value
B1,glycan array binding signal (z-score),[1],6.69
same,glycan array binding signal (z-score),[2],-0.318
same,glycan array binding signal (z-score),[3],-0.429
same,glycan array binding signal (z-score),[4],0.917
same,glycan array binding signal (z-score),[5],6.34
same,glycan array binding signal (z-score),Man(a1-3)[Man(a1-6)]Man,0.835
same,glycan array binding signal (z-score),[6],-0.128
same,glycan array binding signal (z-score),[7],-0.311
same,glycan array binding signal (z-score),[8],-0.396
same,glycan array binding signal (z-score),[9],-0.358
same,glycan array binding signal (z-score),[10],1.65
same,glycan array binding signal (z-score),Man(a1-6)Man,2.08
same,glycan array binding signal (z-score),Man(b1-4)GlcNAc,0.002
same,glycan array binding signal (z-score),MurNAc(b1-4)GlcNAc,-0.43
same,glycan array binding signal (z-score),Neu5Ac(a2-3)Gal,-0.391
same,glycan array binding signal (z-score),[11],-0.441
same,glycan array binding signal (z-score),[12],-0.418
same,glycan array binding signal (z-score),[13],-0.322
same,glycan array binding signal (z-score),[14],-0.334
same,glycan array binding signal (z-score),[15],-0.091
same,glycan array binding signal (z-score),[16],-0.431
same,glycan array binding signal (z-score),[17],-0.341
same,glycan array binding signal (z-score),[18],0.296
same,glycan array binding signal (z-score),[19],-0.055
same,glycan array binding signal (z-score),[20],-0.307
same,glycan array binding signal (z-score),[21],-0.423
same,glycan array binding signal (z-score),[22],-0.31
same,glycan array binding signal (z-score),[23],-0.093
same,glycan array binding signal (z-score),[24],-0.162
same,glycan array binding signal (z-score),[25],-0.222
same,glycan array binding signal (z-score),[26],-0.396
same,glycan array binding signal (z-score),[27],0.712
same,glycan array binding signal (z-score),[28],3.62
same,glycan array binding signal (z-score),[29],-0.265
same,glycan array binding signal (z-score),[30],-0.282
same,glycan array binding signal (z-score),[31],-0.389
same,glycan array binding signal (z-score),[32],-0.338
